Data reported in the supplement of paper PMC11417369.
± gives the standard deviation of the averaged measurements. The list shows a part of the results.

Test system: PfAP2-EXP AP2 domain (GST-tagged)
Experiment: gcPBM binding intensity (ln(normalized median fluorescence intensity)); higher = stronger DNA binding
Summary of the method: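 For binding intensity, the highest Masliner-normalised natural-log median intensity across replicate spots of either probe orientation was taken. Protein bound to the array was stained with Alexa488 anti-GST antibody and scanned at 488 nm. The protein, GST-tagged P. falciparum DNA-binding domains from E. coli at about 25 μg on average, had been applied for 1 h to an Agilent 4 × 180k array of primer-extended double-stranded 36-bp intergenic genomic probes and negative controls.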

Row | Sequence | gcPBM binding intensity (ln)
1 | CATCTAAATTGTAGTTGTACACCTTAATCTTATTAC [XGTACX_site7547] | 8.8 ± 0.3
2 | GTATCAAAAGAATACACACACACATACATATATATA [CACACA_site3796] | 8.68 ± 0.38
3 | ACTCTCTTATATTAAACACACATATTTATAGGTATA [CACACA_site7302] | 8.64 ± 0.22
4 | ATTTTAGAATAAATTTTTTACATTAAAAAACTATTT [CACACA_negctrl_site1414] | 7.92 ± 0.33
5 | AAGGATATAACATACACACACACACGGATATAAATA [CACACA_site7867] | 8.93 ± 0.46
6 | TGAACATATTAAAATTGTACATATGCACAATATGTA [XGTACX_site6801] | 8.53 ± 0.39
7 | CATACAATAAATATGGTGCATTTTATGTAACCGTTT [GTGCAC_site9420] | 8.52 ± 0.099
8 | AAAAGGTTATCAATATGTACATATTTTTTTATTTTT [XGTACX_site3277] | 8.59 ± 0.4
9 | AGAAATACAAAATAAATATAAGAAACAAAATATTTA [CACACA_negctrl_site780] | 8.79 ± 0.38
10 | TGAAAAATAAATAAATGTACATATATATATATATAC [XGTACX_site7310] | 8.41 ± 0.12
11 | TATTTCATCATATTGTGTACTTAATTTATATAATTA [XGTACX_site5753] | 8.65 ± 0.32
12 | TTTTAATTAAAACACACACACACATATATATATATA [CACACA_site2291] | 10.2 ± 0.23
13 | ATAAAAATATGATCAACACACGATTAAATATTCATA [CACACA_site1495] | 8.4 ± 0.45
14 | TACATCTGTAATGTGTGTACATATATGTATATATTT [XGTACX_site1805] | 8.48 ± 0.44
15 | CTAAATAAAGTTAACACACACATAATATATATATGT [CACACA_site486] | 8.54 ± 0.43
16 | TAATTTTTATGAAGAAGTACAAAATCTACTATCATA [XGTACX_site4985] | 7.99 ± 0.38
17 | AAAAATTCTTTTTCATCTATATGCAGAAAGAAAAAG [CACACA_negctrl_site1201] | 8.35 ± 0.45
18 | CATAAACTTTTTAACACACACTTATATATATATATA [CACACA_site4747] | 10.3 ± 0.23
19 | TATATGAAGCTATAGACACACATATAAAAATATAAT [CACACA_site4850] | 8.64 ± 0.47
20 | TATAATAATATATATTGTACACACAAAATGGGAAAA [XGTACX_site3911] | 8.94 ± 0.35
21 | GAATTTATGAACTGTGCATGTAAAAAAAACAACAAA [TGCATGCA_site449] | 9.13 ± 0.3
22 | ATATAAAAAAAAGATGAAAAAAAAAATGAAAGAAAG [CACACA_negctrl_site1266] | 8.91 ± 0.55
23 | TTTTTTTTTTTTTACACACACAAAATATTATCTGTA [CACACA_site5378] | 8.54 ± 0.47
24 | ATATATATAATATGATGTACATATTTATTTATATAT [XGTACX_site7333] | 8.53 ± 0.042
